Data on 111 molecules can be found in PubChem BioAssay AID488969 (Vanderbilt High Throughput Screening Facility, 2010).

The structures appear in SMILES notation. Whole data set: some 110,000 compounds, median “z-score” near -0.1, cut for the highest 2% near 2. The list shows a part of the results. Activity calls are given as the source filed them.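 How the source made its calls: active means z-score in the third read window above 3 or below -3; inactive means the rest.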

In the experiment the target is Metabotropic glutamate receptor 8 (Rattus norvegicus) (UniProt P70579). As to the kind of experiment: mGluR8 Gi/Go-coupled signaling modulation – cell-based, rat, thallium flux, HTS, primary screen (AID 488969). The following applies: HEK293 rat mGluR8, GIRK (G protein-gated inwardly rectifying potassium channel) thallium flux, FluoZin2; at 10 µM; stronger effect = higher value; submaximal glutamate (EC20) added with thallium.
UniProt P70579, sequence (P70579 whole entry, looked up): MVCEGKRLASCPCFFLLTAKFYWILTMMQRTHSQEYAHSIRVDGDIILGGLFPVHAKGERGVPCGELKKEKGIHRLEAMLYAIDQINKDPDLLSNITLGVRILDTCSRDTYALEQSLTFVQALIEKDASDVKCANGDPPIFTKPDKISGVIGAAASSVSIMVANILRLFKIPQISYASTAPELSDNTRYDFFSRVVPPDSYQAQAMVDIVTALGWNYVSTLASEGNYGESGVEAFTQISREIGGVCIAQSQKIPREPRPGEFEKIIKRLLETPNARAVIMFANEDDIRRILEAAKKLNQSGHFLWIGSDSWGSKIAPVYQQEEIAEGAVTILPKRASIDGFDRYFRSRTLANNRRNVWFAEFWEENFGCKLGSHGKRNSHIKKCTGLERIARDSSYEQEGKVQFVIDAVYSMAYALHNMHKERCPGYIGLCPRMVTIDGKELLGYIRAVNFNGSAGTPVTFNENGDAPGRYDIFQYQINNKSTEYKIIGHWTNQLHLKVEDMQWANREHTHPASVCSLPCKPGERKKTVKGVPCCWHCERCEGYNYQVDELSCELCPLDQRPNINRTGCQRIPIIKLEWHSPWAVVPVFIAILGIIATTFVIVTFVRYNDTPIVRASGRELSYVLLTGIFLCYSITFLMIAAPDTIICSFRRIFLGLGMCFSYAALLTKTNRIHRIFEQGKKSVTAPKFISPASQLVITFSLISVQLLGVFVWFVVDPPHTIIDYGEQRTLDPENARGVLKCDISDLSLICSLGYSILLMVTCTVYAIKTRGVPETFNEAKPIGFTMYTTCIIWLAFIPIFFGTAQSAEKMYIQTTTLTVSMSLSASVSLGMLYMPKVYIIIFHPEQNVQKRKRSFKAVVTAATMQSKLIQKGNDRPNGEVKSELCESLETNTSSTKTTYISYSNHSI
In turn, `Cc1ccc(N2C(=O)C3C4C=CC(CNC(=S)Nc5cccc(Cl)c5)(O4)C3C2=O)cc1` (stereo unspecified) displayed a z-score of -0.15.
`Cn1cc(S(=O)(=O)Nc2ccc(Br)cc2F)c(=O)n(C)c1=O` returned a z-score of 0.532.
Consider `CSc1nsc(SCC(=O)Nc2ccc(Br)cn2)n1`, for which the z-score is -0.419.
In the case of `COCCNC(=O)C1=C(N)C(C(=O)Nc2ccc(C)c(S(=O)(=O)N3CCCCC3)c2)SC1=Nc1ccc(C)cc1C` (stereo unspecified), the z-score is -0.143.
As for `COc1cc(/C=N/NC(=O)CCC(=O)NCc2ccccc2)cc(OC)c1OC`, the z-score worked out at 0.16.
The molecule `Cc1ccc(C(=O)c2coc3ccc(OCC(=O)O)cc23)cc1` had a z-score of -1.87.
`Cc1ccc(S(=O)(=O)N/N=c2\sc3ccccc3n2C)cc1` displayed a z-score of 0.783.
The molecule `Cc1nnc(SCc2ccon2)n1-c1ccccc1` showed a z-score of 1.31.
For the molecule `Cc1ccc(-c2cc(C(=O)N/N=C/c3c[nH]c4ccccc34)n[nH]2)o1`, the z-score was -0.212.
To `Cn1c(NCC2CCCO2)nc2c1c(=O)n(Cc1ccccc1)c(=O)n2C` (stereo unspecified) belongs -0.136; to `COc1ccccc1NC(=O)CSc1nnnn1-c1ccc2c(c1)OCO2`, -0.755.
`CCN(CC)CC(O)Cn1c2ccccc2c2ccccc21` (stereo unspecified): the z-score came out at 0.977.
For `Cc1ccc(N2C(=O)/C(=C/c3cccnc3)SC2=S)cc1`, the z-score came to 0.0454.
The figure for `NC(=S)NN=C1c2cc(S(=O)(=O)N3CCOCC3)ccc2-c2ccc(S(=O)(=O)N3CCOCC3)cc21` is 0.0882.
As to `CN(c1cccc(Cl)c1)S(=O)(=O)c1cccc(C(=O)Nc2ccc3c(c2)CCC3)c1`, the z-score is -0.241.
The molecule `COc1cccc(OCCNc2cc(N3CCOCC3)ccc2[N+](=O)[O-])c1` had a z-score of -0.191.
`Cc1ccc(C(=O)C[n+]2ccc(-c3nnc4n3CCC4)cc2)cc1` showed a z-score of -0.141.
Molecule `Cn1cnc2c1c(=O)n(Cc1cccc(Br)c1)c(=O)n2C` showed a z-score of 0.157.
For the molecule `CC1CN(C(c2ccco2)c2sc3ncnn3c2O)CC(C)O1` (stereo unspecified), the z-score is -0.0394.
To `CC(C)Oc1snc(Cl)c1C(N)=O` belongs -0.0324; to `O=C(c1ccc(Br)o1)N1CCN(Cc2ccc3c(c2)OCO3)CC1`, -1.48.
For `O=C(Cn1nnc(-c2ccccc2F)n1)Nc1ccc(S(=O)(=O)NC2CCCC2)cc1`, the z-score is 0.00767.
In turn, `COc1ccc(-c2oc3ncn(Cc4ccco4)c(=N)c3c2-c2ccc(OC)cc2)cc1` gave a z-score of 0.282.
`CCCNC(=O)c1cc(SC)ccc1Cl` gave a z-score of 0.0122.
`CC1=C(C(=O)Nc2ccc(C)cc2)C(c2ccc(C)o2)C2=C(CC(C)(C)CC2=O)N1` (stereo unspecified): the z-score came out at 0.024.
The figure for `CCCC1Cc2c(sc(NC(=S)NC(=O)c3ccccc3)c2C#N)CO1` (stereo unspecified) is 0.489.
To `O=C(COC(=O)C1CCN(S(=O)(=O)c2ccccc2)CC1)NC(=O)c1ccc(OC(F)F)cc1` belongs 0.0288; to `COc1ccc(NCc2n[nH]c(=O)c3ccccc23)cc1`, 0.491; to `O=C(CCSc1ccccc1)NCC1CCCO1` (stereo unspecified), 0.287.
`CCOc1ccc(CCNC(=O)CCCN2C(=O)c3ccccc3C2=O)cc1OCC` came in with a z-score of 0.111.
`N#Cc1nc(Cc2ccccc2)oc1NCc1ccccc1` yielded a z-score of -0.376.
To `CCCC(=O)NC(=S)Nc1ccccc1F` belongs 0.262.
To `Cn1cccc1C(=O)NC(=O)COC(=O)CC12CC3CC(CC(C3)C1)C2` belongs 0.405; to `O=C(Nc1nccc(-c2cccs2)n1)c1ccccc1Cl`, -0.118; to `O=C(Nc1cc(SCCO)cc([N+](=O)[O-])c1)c1ccc(Br)o1`, -0.169.
With `CCOc1ccc(-n2c(SCC(=O)c3c(N)n(C)c(=O)n(C)c3=O)nnc2-c2cccnc2)cc1`, the z-score is -0.21.
`O=C1c2ccccc2NC(c2ccc(O)cc2)N1Cc1ccco1` (stereo unspecified) gave a z-score of 0.0885.
The molecule `O=C(CN1CCCCC1)Nc1ccc(NC(=O)c2ccc(Cl)cc2)cc1Cl` gave a z-score of -0.0147.
The molecule `CC(=O)Nc1sc2c(c1C#N)CCCCC2` had a z-score of -0.296.
Molecule `CC1CCN(c2ccc(C(=O)N3CCOCC3)cc2[N+](=O)[O-])CC1` registered a z-score of 0.0207.
Regarding `CCCCCNc1nc(-c2ccccc2)cs1`, the z-score was active: 3.86.
In turn, `Cc1ccc(-n2c3c(c(=O)[nH]c2=O)C(NS(=O)(=O)c2ccc(Cl)cc2)(C(F)(F)F)C(=O)N3)cc1` (stereo unspecified) gave a z-score of 0.621.
Regarding `O=C(CNc1cccc(Cl)c1)c1ccc(Cl)cc1`, the z-score was -0.405.
To `Cc1ccc(C(=O)Oc2ccc(C(=O)COC(=O)C3CC(=O)N(Cc4ccco4)C3)cc2)cc1` (stereo unspecified) belongs -0.0653; to `CCOC(=O)c1cc2sccc2n1CCCN1C(=O)c2ccccc2C1=O`, 0.0234.
In turn, `CS(=O)(=O)N1N=C(c2ccc(Br)cc2)CC1c1cccs1` (stereo unspecified) yielded a z-score of 0.394.
Turning to `C=CCn1c(SCC(=O)Nc2cccc(OC)c2)nnc1-c1cccnc1`, the z-score is -0.424.
Molecule `Cc1nc(CNS(=O)(=O)c2cc(C)c(C)cc2C)cs1` returned a z-score of -0.0555.
`O=C(NCc1ccc2c(c1)OCO2)c1cc2ncc(Br)cn2n1` returned a z-score of 0.244.
The figure for `O=S(=O)(c1ccc(Br)cc1)N1CCCC1c1nc2ccccc2s1` (stereo unspecified) is -0.354.
`CCCNC(=S)NCCN1CCCCC1` gave a z-score of -0.303.
`Cc1c(C(=O)NNS(=O)(=O)c2ccccc2Cl)sc(=S)n1C` displayed a z-score of -0.175.
To `Cc1cccc(NC(=O)CSc2nnc(NC(=O)CN3CCOCC3)s2)c1` belongs 1.04; to `CS(=O)(=O)n1nc(-c2ccccc2)nc1N`, -0.262; to `Cc1nc2ccc(S(=O)(=O)NC(C(=O)Nc3nc4ccc(Cl)cc4s3)C(C)C)cc2s1` (stereo unspecified), -0.00466.
As for `CC(C)n1nc(C(=O)Oc2cc(Cl)ccc2Cl)c2ccccc2c1=O`, the z-score is 0.267.
The molecule `CCc1c(O)nc(SCC(=O)Nc2ccc(OC)cc2)n(C2CCCCC2)c1=O` yielded a z-score of -2.85.
With `CCCn1c(CN2CCN(C(=O)c3ccco3)CC2)nc2c1c(=O)n(C)c(=O)n2C`, the z-score was -1.63.
The figure for `CCCCC1S/C(=N/N=C/c2cccs2)NC1=O` (stereo unspecified) is -0.292.
`CC(=O)Nc1ccc(NC(=S)NC(=O)c2ccc([N+](=O)[O-])cc2)cc1` returned a z-score of -0.11.
For the molecule `Cc1ccc2[nH]c(=O)c(CN(Cc3cccs3)C(=S)NCc3ccco3)cc2c1`, the z-score came to 0.17.
`CC(=O)Nc1ccc(N=Nc2ccccc2)cc1` registered a z-score of -0.0502.
Take `O=C(NCCSc1c[nH]c2ccccc12)c1ccco1`: the z-score is active: 3.57.
`CCOc1ccccc1NC(=O)c1cc(CC(C)C)oc1C`: the z-score was -0.903.
Regarding `COCCNC(=O)COc1ccc(C)c(C)c1`, the z-score was found to be 0.109.
With `CN1CCN(C(=O)c2c(NC(=O)c3ccco3)sc3c2CCC(C(C)(C)C)C3)CC1` (stereo unspecified), the z-score turned out to be 0.272.
The figure for `COc1ccc(CCNC(=O)C(=O)NCC2CCCO2)cc1OC` (stereo unspecified) is -0.0833; for `Cc1cc2ncc(-c3ccc(Cl)cc3)c(N)n2n1` it is -1.83.
To `CCCn1nc(C(=O)NCC(C)(C)N2CCOCC2)c2ccccc2c1=O` belongs -0.0718; to `CCN(CC)S(=O)(=O)c1ccc(/C(O)=C(\C#N)c2nc3ccccc3n2C)cc1`, -0.33; to `CCN(c1ccccc1)S(=O)(=O)c1ccc(NC(=S)NC(=O)c2ccc(Br)o2)cc1`, active: 5.31.
`Cc1ccc(-n2cc3c(-c4cccc(Br)c4)nnc(C)c3n2)cc1` gave a z-score of -0.478.
The figure for `CC(C)(C)c1ccc(C(=O)CSc2n[nH]c(=O)[nH]c2=O)cc1` is -0.245.
As to `Cc1c(Cl)cnc(NC(=O)COC(=O)c2cc3c(s2)CCC(C)C3)c1Cl` (stereo unspecified), the z-score is -0.42.
In the case of `COc1cccc(NC(=O)Cn2cnc3sc(C)c(S(=O)(=O)N4CCN(C)CC4)c3c2=O)c1`, the z-score is 0.0151.
Regarding `CCCS(=O)(=O)N1CCC(C(=O)NCCN(C)Cc2ccccc2)CC1`, the z-score turned out to be 0.549.
To `O=C1c2ccccc2C(=O)N1CCc1nc(-c2ccncc2)no1` belongs -0.133.
Take `COc1ccc(/C=N/NC(=O)c2ccn[nH]2)cc1COc1ccc(Cl)cc1`: the z-score is -0.168.
To `Cc1cccnc1NC(=O)Cn1nc(C)c([N+](=O)[O-])c1C` belongs -0.0376.
For `Cc1oc(-c2ccc(Cl)cc2)nc1CN1CCC(C(=O)N2CCN(Cc3ccccc3)CC2)CC1`, the z-score stood at 0.0945.
For `O=c1c(-c2nc3ccccc3s2)cccn1Cc1ccccc1`, the z-score came out at 0.0467.
Regarding `Cc1nc(SCC(=O)Nc2ccccc2C(F)(F)F)c2c(=O)n(C)c(=O)n(C)c2n1`, the z-score is -0.153.
Take `COc1cccc(C2=NOC(C(=O)NCc3ccco3)C2)c1` (stereo unspecified): the z-score is -0.0737.
`CCN(CC)P1(=O)OC(c2cc(OC)c(OC)c(OC)c2)=Nc2c1c(C)nn2-c1ccccc1` (stereo unspecified) gave a z-score of -1.4.
`C=CCc1cc(C(=O)N2CCCCC2)ccc1O` showed a z-score of 0.078.
To `CCOc1ccc(/C=N/NC(=S)Nc2c(C)cccc2C)cc1` belongs 0.767.
Regarding `N=c1sc2ccccc2n1-c1ccccc1`, the z-score was -0.074.
For the molecule `CCCc1ccc(-c2c(C)sc(N)c2C#N)cc1`, the z-score is -0.38.
`CCOC(=O)CC(=O)c1cc(OC)c(OC)c(OC)c1`: the z-score is 0.627.
In turn, `COCCCn1c(SCC(=O)NCc2ccco2)nc2sc3c(c2c1=O)CCC3` had a z-score of -0.383.
`Oc1ccc(Nc2nc(-c3ccc(O)cc3)cs2)cc1`: the z-score was 0.0887.
Molecule `COc1ccc(C2=NCN(c3ccc(C)cc3)C(=S)N2)cc1` registered a z-score of 0.826.
In turn, `C=C(C)CN1CCN(S(=O)(=O)c2ccc(C)c(N(C)S(=O)(=O)c3ccc(C)cc3)c2C)CC1` displayed a z-score of -0.0807.
Regarding `O=C(COc1ccc2c3c(c(=O)oc2c1)CCC3)c1ccc2c(c1)OCO2`, the z-score was -0.411.
The molecule `Cn1nnnc1SCC(=O)Nc1cc(C(C)(C)C)nn1-c1ccccc1` gave a z-score of 1.33.
With `Cn1c(-c2ccc(C(=O)c3ccccc3)s2)nc2ccccc21`, the z-score is -0.293.
Take `NNC(=O)c1cc2c(s1)CCCCCC2`: the z-score amounted to 0.0976.
In turn, `C1CCC(Nc2nnnn2C2CCCCC2)CC1` came in with a z-score of -0.0985.
Consider `Cc1ccc(-c2nn(CC(=O)NCCN3CCOCC3)c(=O)c3ccccc23)cc1`, for which the z-score was -0.0872.
`O=C(CCc1nc2ccccc2[nH]c1=O)OCC(=O)c1ccc(Cl)cc1` returned a z-score of 0.331.
Consider `COc1ccc(C=O)cc1COc1ccc(F)cc1F`, for which the z-score was -0.293.
`CN1CCN(C(=O)C23CC4CC(CC(C4)C2)C3)CC1` displayed a z-score of 0.0565.
Molecule `NC(=O)c1oc2ccccc2c1NC(=O)c1ccc(F)cc1` gave a z-score of 0.595.
For `CCC(=O)c1c[nH]c(C(=O)NCC2CCCO2)c1` (stereo unspecified), the z-score came out at 0.0438.
For `COc1ccc(Nc2cc(C(=O)NCCCN3CCN(C)CC3)c3ccccc3n2)cc1OC`, the z-score turned out to be 0.285.
Turning to `COc1cc(-c2nnc3n2N=C(c2ccccc2)CS3)cc(OC)c1OC`, the z-score was -0.164.
With `OC(COc1ccc(OCc2ccccc2)cc1)CN1CCCCC1` (stereo unspecified), the z-score turned out to be 2.76.
To `CCN(CC)S(=O)(=O)c1ccc(C(=O)OCC(=O)c2ccc3c(c2)NC(=O)CO3)cc1` belongs -0.2; to `O=C(Cc1cccs1)Nc1nnc(CCc2ccccc2)s1`, 0.238.
The figure for `O=C1CN(S(=O)(=O)c2ccccc2)CC(=O)N1CCc1ccccc1` is -0.228; for `Cc1cccc(C(=O)N2CCN(c3ccc(C(F)(F)F)cn3)CC2)c1C` it is -0.22.
